Laboratory results taken from PubChem BioAssay AID485281 (National Center for Advancing Translational Sciences (NCATS), 2010).
The whole screen tested about 350,000 compounds, of which about 260 (0.074%) were called active. The inconclusive results got no clear call from the source; some entries with a clear call stand among them for comparison. The call rests on the fitted dose curve; in most records, active means well fitted inhibition curve with a large enough effect; inconclusive means small, poorly fitted or top-dose-only effect; inactive means no such curve, though single readings can be large or run the other way. A potency beside an inconclusive call is a rough fit, not a confirmed value.

What follows are compounds tested against Ferritin light chain (Equus caballus) (UniProt P02791) (assay: qHTS Assay for Identification of Novel General Anesthetics). Settings: apoferritin/1-aminoanthracene competitive binding, fluorescence; series mostly up to 77.5 µM.
Summary of the method: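 10 uM apoferritin + 50% sat. 1-AMA, PBS; cpd 10 min RT; Ex380/Em535 endpoint; normalized to free probe vs complex; 4-param Hill fit; propofol titration as pos. ctrl.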
Further: nearly all actives have a fitted effect of over 20% in size.
Potency means the concentration at half of the fitted maximal effect; tags describe the fitted curve by direction and shape.

UniProt P02791, sequence (P02791 whole entry, looked up): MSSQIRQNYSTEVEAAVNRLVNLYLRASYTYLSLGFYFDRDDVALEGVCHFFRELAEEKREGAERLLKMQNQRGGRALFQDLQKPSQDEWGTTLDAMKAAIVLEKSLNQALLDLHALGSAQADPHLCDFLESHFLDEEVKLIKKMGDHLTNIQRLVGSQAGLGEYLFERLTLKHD

Potency, inactive:
CCOC(=O)c1[nH]c2ccc(OCC)cc2c1NC(=O)CN1CCC2(CC1)OCCO2
COc1cccc(C(=O)O/N=C(\N)c2ccc([N+](=O)[O-])cc2)c1
COc1ccc(Cl)cc1NC(=O)CCn1c(=O)c2cccn2c2ccccc21
CCn1cc(CN2CCC(C(=O)Nc3ccc(Oc4cccnc4)cc3)CC2)cn1
O=C(NC(=S)NCc1ccccc1)c1ccccc1
c1ccc(Cn2cc(CNc3ccccc3)nn2)cc1
C=CCc1cccc(CNc2nc3ccccc3n2C(C)C)c1O
COc1ccc(C(=O)N/C(=C\c2ccco2)C(=O)NCCCn2ccnc2)cc1
Cc1cccc(N2C(=O)CC(Sc3nc(-c4ccccc4)c4cc(Cl)ccc4n3)C2=O)c1 (centres undefined)
O=C(O)C(=O)/C(=C\c1ccccc1)c1ccc2ccccc2n1
Cc1cccc(Cn2c(=O)n(CCCC(=O)NCc3ccccc3Cl)c(=O)c3ccccc32)c1
O=C(c1ccco1)N1CCN(S(=O)(=O)c2ccc(Cl)cc2)CC1
COc1ccc2cc3cc(C(=O)NCCN4CCN(Cc5ccccc5)CC4)oc3nc2c1
Brc1ccc2ncnc(Nc3ccc(N4CCOCC4)cc3)c2c1
O=C(O)c1ccc(Nc2nc(-c3ccccc3)cs2)cc1
Cc1ccc(S(=O)(=O)N2CCCC2C(=O)Nc2nc3ccccc3s2)cc1 (centres undefined)
COc1ccc(OC)c(NC(=O)Cn2c(=O)n(Cc3ccco3)c(=O)c3cc(OC)c(OC)cc32)c1

Potency, inconclusive:
Cc1csc(Nc2cccc3ccccc23)n1 28.2 µM [inhibitor, partial curve]
CCCCCCCCCCCC(=O)NC(C(=O)OCC)C(O)c1cccc([N+](=O)[O-])c1 (centres undefined) 25.1 µM [inhibitor, partial curve]
CC(C)(C)C(=O)c1cnc(Nc2ccccc2Cl)s1 15.8 µM [inhibitor, partial curve]
CNC(=S)N(Cc1cc2cc(C)cc(C)c2[nH]c1=O)C1CCCC1 15.8 µM [inhibitor, partial curve]
O=C(c1ccc(Cl)cc1)N1C2C=CC(C2)C1(C(F)(F)F)C(F)(F)F (centres undefined) 25.1 µM [inhibitor, partial curve]
CCC1CCCCN1C(=O)CSc1nnc(-c2c[nH]c3ccccc23)o1 (centres undefined) 25.1 µM [inhibitor, partial curve]
CCOC(=O)C1=NNC(C(=O)c2ccc(Cl)cc2)C1c1ccc(OC)cc1 (centres undefined) 15.8 µM [inhibitor, partial curve]
Cc1ccc(Nc2nc(NCCO)nc3c2cnn3C)cc1Cl 31.6 µM [inhibitor, single point]
O=C(Nc1ccc(-c2nc3ccccc3o2)cc1)c1cc(-n2cnnc2)ccc1Cl 39.8 µM [inhibitor, single point]
Cc1cccc(NC(=O)Cn2nnc(C(=O)NCc3cccs3)c2N)c1 3.16 µM [inhibitor, full curve, poor fit]
OC(c1cccc(OCc2ccccc2)c1)c1nnc(-c2ccccc2)o1 (centres undefined) 25.1 µM [inhibitor, partial curve]
Cc1nc(Nc2ccccc2)sc1C(=O)c1ccc(F)cc1 25.1 µM [inhibitor, partial curve]
CCCS(=O)(=O)c1c(S(=O)(=O)CCC)c2cc(CC)ccn2c1C(=O)OC 22.4 µM [inhibitor, partial curve]
COCCCn1c(=O)/c(=C\c2ccccc2OC(F)F)s/c1=C(/C#N)C(=O)N1CCOCC1 35.5 µM [inhibitor, partial curve]
N#C/C(=C\c1c(N2CCOCC2)nc2ccccn2c1=O)S(=O)(=O)c1ccccc1 15.8 µM [inhibitor, partial curve]
O=C1NC(=S)S/C1=C\c1ccc(SCc2ccco2)o1 39.8 µM [inhibitor, single point]
CC(C)(C)n1cnc2cc(NS(=O)(=O)c3ccc(Br)cc3)ccc21 39.8 µM [inhibitor, partial curve]
Cc1ccc(N(C)C(=O)c2ccc3c(Cl)c4c(nc3c2)CCC4)cc1C 50.1 µM [inhibitor, single point]
Cc1c(C)n(CC(O)CN2C(=O)c3ccccc3S2(=O)=O)c2ccccc12 (centres undefined) 15.8 µM [inhibitor, partial curve]
COc1cc(CNCc2ccccn2)ccc1OCc1cccc(Cl)c1 20 µM [inhibitor, partial curve]
O=C(OCn1ncc(Br)c(Br)c1=O)c1ccc(F)cc1 14.1 µM [inhibitor, partial curve]
C[n+]1c2n(c3ccccc31)N=C(c1ccccc1)CS2 15.8 µM [inhibitor, partial curve]
O=[N+]([O-])c1cccc(N/N=C/c2cccc(O)c2O)c1 31.6 µM [inhibitor, partial curve]
COc1ccc(OCC(O)CNC(=O)c2ccc(OC)cc2)cc1 (centres undefined) 28.2 µM [inhibitor, partial curve]
O=C(NN=c1c(=O)c2ccccc2c1=O)c1ccccc1 50.1 µM [inhibitor, single point]
CCOC(=O)c1c(C)[nH]c(O)c1C=Nc1ccc(C(F)(F)F)cc1 28.2 µM [inhibitor, partial curve]
COc1ccccc1C1N(c2ccc(Cl)cc2)C(=O)C2CCCN21 (centres undefined) 11.2 µM [inhibitor, full curve]
Nc1nc(SCc2ccc3c(c2)OCCO3)n[nH]1 25.1 µM [inhibitor, partial curve]
CCOc1ccc2oc(=O)cc(CN3CCN(Cc4ccc(C)cc4)CC3)c2c1 17.8 µM [inhibitor, partial curve]
Cc1ccc(C)c(S(=O)(=O)Nc2ccc(O)cc2)c1 31.6 µM [inhibitor, partial curve]
Cc1cc(OCc2cc(C(=O)NC(C)c3c(C)nn(C)c3C)no2)cc(C)c1Cl (centres undefined) 35.5 µM [inhibitor, single point]
C=CCn1c(C)cc(-c2csc(N)n2)c1C 25.1 µM [inhibitor, partial curve]
Cn1c(NC(=O)CCC2CCCCC2)cc(=O)n(C)c1=O 25.1 µM [inhibitor, partial curve]
O=S(=O)(Nc1ccccc1)c1cccc2nonc12 28.2 µM [inhibitor, partial curve]
Cc1ccc(NC(=O)COC(=O)CCC(=O)c2cccs2)cc1 39.8 µM [inhibitor, partial curve]
COc1ccc(-c2nnc3sc(CCN4C(=O)c5ccccc5C4=O)nn23)cc1 31.6 µM [inhibitor, partial curve]
c1ccc2nc(-c3ccc4c(c3)OCO4)ccc2c1 17.8 µM [inhibitor, partial curve]
CC12CC(NC(=O)N1c1cccc(C(=O)N3CCN(c4ccccc4)CC3)c1)c1ccccc1O2 (centres undefined) 25.1 µM [inhibitor, partial curve]
Cc1ccc(NCC(=O)N=Nc2c(O)n(C)c3ccccc23)cc1 25.1 µM [inhibitor, partial curve]
Cc1nn(Cc2noc(C(=O)NCc3ccc4c(c3)OCO4)n2)c(C)c1Br 28.2 µM [inhibitor, single point]
CC(=O)c1cccc(NC(=O)Cc2ccc(NC(=O)N3CCCCc4ccccc43)cc2)c1 12.6 µM [inhibitor, partial curve]
CCOC(=O)CSc1nc2ccc(N)cc2s1 39.8 µM [inhibitor, single point]
CCN(CC)C(=O)CSc1ncnc2sc(-c3ccccc3)cc12 44.7 µM [inhibitor, single point]
Cc1ccc(NC(=O)CN2C(=O)C(c3ccc(C(C)(C)C)cc3)=NC2(C)C)cc1 50.1 µM [inhibitor, partial curve, poor fit]
COc1ncnc2c1N[C@@](C)(O)c1c(F)c(F)c(F)c(F)c1S2 31.6 µM [inhibitor, single point]
CCCN(CCC)C(=O)CSc1c2c(nc3ccc(Cl)cc13)CCCC2 35.5 µM [inhibitor, partial curve]
Nc1nnc(CCc2ccccc2)s1 28.2 µM [inhibitor, partial curve]
COc1ccc(C(C)=O)cc1CSc1nnc(-c2ccccc2O)n1-c1ccccc1 6.31 µM [inhibitor, full curve, poor fit]
O=C(c1ccc(Br)cc1)N1CCCc2ccccc21 20 µM [inhibitor, partial curve]
O=C(/C=C/c1cccc([N+](=O)[O-])c1)NCCSCc1ccc(Cl)cc1 25.1 µM [inhibitor, partial curve]
CC1CCCCN1C(=O)CN1CCSc2ccccc21 (centres undefined) 15.8 µM [inhibitor, partial curve]
O=C(NCc1ccccc1F)c1cccs1 35.5 µM [inhibitor, partial curve]
